Drawing on a compilation of properties of binary mixtures (doi:10.1016/j.molliq.2021.115610), this text covers mass density for 2 compounds.

The structures appear in SMILES notation. Some of these densities may be calculated back from excess volumes.

This data set in a line: xn = mol fraction of the nth substance listed. As to conditions: 298 K, 101 kPa.

Turning to `CCCC[NH3+].O=[N+]([O-])[O-]` + O, the mass density (x2 = 0.112) is given as 1105.1 kg/m3, the mass density (x2 = 0.2) came out at 1104.4 kg/m3 and the mass density (x2 = 0.95) turned out to be 1037.3 kg/m3.

In the case of `CC[NH3+].O=[N+]([O-])[O-]` + O, the mass density runs as follows: (x2 = 0) 1211.2 kg/m3; (x2 = 0.1) 1208.5 kg/m3; (x2 = 0.198) 1204.9 kg/m3; (x2 = 0.294) 1200.7 kg/m3; (x2 = 0.394) 1194.4 kg/m3; (x2 = 0.5) 1186.5 kg/m3. For the same compound, the mass density worked out at 1175.6 kg/m3 (x2 = 0.6), 1133.4 kg/m3 (x2 = 0.799) and 1089.7 kg/m3 (x2 = 0.9).
